This is an account of results in PubChem BioAssay AID1159614 (National Center for Advancing Translational Sciences (NCATS), 2016).

Out of some 45,000 compounds screened, about 65 (0.1%) were called active. Calls follow the shape of the dose curve; as a rule, active = well fitted activation curve with a large enough effect; inconclusive = small, poorly fitted or top-dose-only effect; inactive = no such curve, though single readings can be large or run the other way. The list shows a part of the results.

UniProt P54803, sequence (P54803 whole entry, looked up): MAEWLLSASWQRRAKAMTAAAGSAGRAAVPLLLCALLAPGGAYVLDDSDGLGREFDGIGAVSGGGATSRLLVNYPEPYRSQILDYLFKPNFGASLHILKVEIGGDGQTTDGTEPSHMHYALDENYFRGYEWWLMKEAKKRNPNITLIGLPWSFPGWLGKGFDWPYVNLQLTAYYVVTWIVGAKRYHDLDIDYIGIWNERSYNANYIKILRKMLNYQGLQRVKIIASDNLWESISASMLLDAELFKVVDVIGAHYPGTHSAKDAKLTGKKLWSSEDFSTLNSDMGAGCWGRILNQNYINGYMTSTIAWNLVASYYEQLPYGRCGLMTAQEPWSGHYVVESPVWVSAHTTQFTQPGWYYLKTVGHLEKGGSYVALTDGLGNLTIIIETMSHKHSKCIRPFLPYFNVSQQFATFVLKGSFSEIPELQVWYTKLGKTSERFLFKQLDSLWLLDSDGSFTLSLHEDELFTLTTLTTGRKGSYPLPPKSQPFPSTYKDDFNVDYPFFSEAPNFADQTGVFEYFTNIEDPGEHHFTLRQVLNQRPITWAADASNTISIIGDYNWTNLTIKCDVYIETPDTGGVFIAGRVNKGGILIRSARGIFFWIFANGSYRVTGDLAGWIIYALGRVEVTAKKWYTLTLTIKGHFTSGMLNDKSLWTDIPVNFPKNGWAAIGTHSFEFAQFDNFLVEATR

This assay addresses Galactocerebrosidase (Homo sapiens) (UniProt P54803). As to the kind of experiment: A Novel Cell-Based Assay to Identify Small Molecules for B -Galactocerebrosidase. Also: 0% is about no effect; nearly all actives have a fitted effect of over 65% in size. The settings on record: 145M-Twi-hGALC-G270D cells (Twitcher mouse brain line with human GALC G270D), HMU-beta-Gal fluorescence, 48 h; series mostly up to 57.5 µM; activation: at the top concentration. In short, it runs like this:
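Fluorogenic HMU-b-Gal hydrolysis (0.1 mM final, pH 5.2 citrate-phosphate with 1 mg/mL sodium taurocholate; carbonate stop buffer) measures mutant GALC activity after compound treatment of live 145M-Twi Twitcher brain cells stably carrying human GALC-G270D, with wild-type GALC line alongside; activation sought.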
Consider `CCOc1ccc(OCC)c(NC(=O)c2nnn(Cc3cc(Br)ccc3OC)c2N)c1`, for which the “activation” value is inactive: -9.5%.

In the case of `COCCCNC(=O)c1cn(CC(C)C)c(=O)c2c1c1ccccc1n2C`, the “activation” value is inactive: 10.5%.

As for `CCN(Cc1ccccc1)C(=O)CCS(=O)(=O)c1cc2c(cc1Cl)NC(=O)CO2`, the “activation” value was inactive: -11.2%.

Consider `Cc1ccc(NC(=O)c2nc(S(C)(=O)=O)ncc2N(Cc2ccco2)Cc2ccccc2F)c(C)c1`, for which the “activation” value was inactive: -18.6%.

With `Cc1ccc(CCNC(=O)c2ccc3c(=O)n(-c4ccc(C)cc4)c(=O)[nH]c3c2)cc1`, the “activation” value is inactive: -12.4%.

For the compound `Cc1ccccc1S(=O)Cc1ccc(C(=O)NC2CCCCCC2)o1` (stereo unspecified), the “activation” value is inactive: -4.51%.

Consider `CCOc1cccc2sc(NC(=O)c3ccc(S(=O)(=O)N4CCCc5ccccc54)cc3)nc12`, for which the “activation” value is inactive: -8.32%.

Consider `CCCOc1ccc(C2c3c(oc4ccccc4c3=O)C(=O)N2c2ccc(C)cn2)cc1OCC` (stereo unspecified), for which the “activation” value is inactive: -7.87%.

Turning to `Cc1nc2ccccn2c(=O)c1CCN1CCC(C(=O)c2ccc(F)cc2)CC1`, the “activation” value is inactive: -19.1%.

For the compound `O=C(Nc1ccc(C(F)(F)F)cc1)c1cc(S(=O)(=O)NC2CCCCCC2)ccc1F`, the “activation” value was inactive: -5.55%.

On to `CCOC(=O)c1ccc(CN(Cc2ccc(F)cc2)S(=O)(=O)c2ccc(F)cc2)cc1`, for which the “activation” value is inactive: -17.2%.

On to `CCOC(=O)c1c(C)[nH]c(C)c1S(=O)(=O)N1CCC(C(=O)N2CCN(c3cccc(C)c3)C(C)C2)CC1` (stereo unspecified), for which the “activation” value is inactive: -9.18%.

With `Cc1ccc(C)c(NC(=O)Nc2nnc(N(CC(C)C)CC(C)C)s2)c1`, the “activation” value is inactive: -15.1%.

Turning to `O=C(Cn1cc(SCc2cccc(F)c2)c2ccccc21)N1CCCC1`, the “activation” value is inactive: -0.791%.

Turning to `CCC(=O)c1ccc2c(c1)N(CCCN(C)C)c1ccccc1S2`, the “activation” value is inactive: -13.6%.

For `Cc1ccc(C(=O)Nc2ccc3nc(SCC(=O)N4CCc5ccccc54)sc3c2)cc1`, the “activation” value was inactive: -14.4%.

Consider `Cc1ccc2c(CNCc3cccc(Cl)c3)c(C(=O)O)n(Cc3ccc(F)cc3Cl)c2c1`, for which the “activation” value is inactive: -2.34%.

With `Cc1cc2oc(C(=O)Nc3sc4c(c3C(=O)NCc3ccco3)CCC4)cc(=O)c2cc1C`, the “activation” value was inactive: -10.1%.

As for `COc1ccc2oc(=O)c(-c3nc(-c4cc(OC)c(OC)c(OC)c4)no3)cc2c1`, the “activation” value was inactive: -10.5%.

For the compound `Cc1ccccc1N1CCN(CCc2nnc3n2CCCC3)CC1`, the “activation” value was inactive: -12.4%.

Regarding `O=C(CNS(=O)(=O)c1cccs1)N1CCN(c2ccccc2Cl)CC1`, the “activation” value was inactive: -11.5%.

`COc1cccc(NC(=O)Nc2ccc3c(c2)N(C)C(=O)c2ccccc2S3)c1`: the “activation” value was inactive: -12.1%.

As to `CC1CCN(C(=O)Cn2c(-c3cccs3)cc3cc(Cl)ccc32)CC1`, the “activation” value is inactive: -17.9%.

With `COc1ccc(-c2c(C)c3ccc(O)c(CN4CCOCC4)c3oc2=O)cc1OC`, the “activation” value was inactive: -7.52%.

Turning to `CCOc1ccc(-c2nnc(SCC(=O)Nc3cccc(C#N)c3)o2)cc1`, the “activation” value is inactive: -2.67%.

Regarding `CCCCOC(=O)c1c(C)oc2c1cc(NS(=O)(=O)c1cc(OC)ccc1OC)c1ccccc12`, the “activation” value was inactive: -19.5%.

As for `O=C(CN1C(=O)c2ccccc2Sc2ccc(C(=O)N3CCOCC3)cc21)Nc1ccc(Cl)cc1F`, the “activation” value was inactive: -5.46%.

In the case of `CC(C)(C)c1ccc(C(=O)Nc2ccc(-c3nc4ccccc4o3)c(O)c2)cc1`, the “activation” value is inactive: 0.465%.

In the case of `Cc1cccc(NC(=O)c2sc3ncnc(N(C)C4CCCCC4)c3c2C)c1C`, the “activation” value is inactive: -7.83%.

With `O=C(CSc1nccn1Cc1ccc(F)cc1)NCc1ccco1`, the “activation” value was inactive: 1.29%.

In the case of `Cc1cc(C)c2c(c1)c(C)cc1nnc(SCC(=O)c3ccccc3)n12`, the “activation” value was inactive: -15%.

In the case of `Cc1ccc(C)c(NC(=O)C(CC(C)C)N2Cc3ccccc3C2=O)c1` (stereo unspecified), the “activation” value is inactive: -7.84%.

For the compound `CCCN1Cc2cccc(C(=O)Nc3cc(Cl)ccc3C)c2C1=O`, the “activation” value was inactive: -9.15%.

For `Cc1ccc2c(c1)N(C(=O)CCC(=O)NCc1cccc(F)c1)CC(C)O2` (stereo unspecified), the “activation” value was inactive: -13.5%.

Consider `COc1ccc(CC(=O)Nc2nc3c(s2)CCCC3)cc1`, for which the “activation” value was inactive: 6.63%.

In the case of `CCC(=O)N1CCc2cc(S(=O)(=O)CCC(=O)N3CCN(c4cccc(C)c4C)CC3)ccc21`, the “activation” value was inactive: 1.37%.

For the compound `Cc1cccc(C)c1NC(=O)c1cc(S(=O)(=O)N2CCc3ccccc3C2)ccc1F`, the “activation” value was inactive: 16.5%.

On to `CCN(CC)c1ccc2cc(-c3nc4sc5c(c4c(=O)[nH]3)CCC(C(C)(C)C)C5)c(=O)oc2c1` (stereo unspecified), for which the “activation” value was inactive: -10.1%.

Turning to `COc1cccc(NC(=O)c2c(C)oc3nc(C)nc(N4CCCC4)c23)c1`, the “activation” value is inactive: 1.13%.

For `CC(=O)c1cccc(NC(=O)c2ccc3nc(Cc4ccccc4)oc3c2)c1`, the “activation” value is inactive: -27.5%.

As for `CCCCOc1ccc(C(=O)N(Cc2ccccc2)C2CCS(=O)(=O)C2)cc1` (stereo unspecified), the “activation” value was inactive: 1.22%.

Turning to `CCn1c(=O)c2sccc2n2c(CCCC(=O)N3CCN(c4ccc(F)cc4)CC3)nnc12`, the “activation” value is inactive: 2.03%.

For the compound `CCOc1ccc(-c2cc3c(=O)n(CC(=O)NCc4ccc(F)cc4)ccn3n2)cc1`, the “activation” value is inactive: -12.4%.

Turning to `COc1cccc2cc(-c3nc(-c4ccc(Cl)cc4)cs3)c(=O)oc12`, the “activation” value is inactive: 25.3%.

`CCOC(=O)c1cccc(NC(=O)CCS(=O)(=O)c2ccc3c(c2)CCN3C(=O)CC)c1`: the “activation” value is inactive: 1.38%.

Turning to `O=C(c1ccc(Cl)cc1)n1nc(-c2cccnc2)nc1NCc1ccc(F)cc1`, the “activation” value was inactive: -14.4%.

Regarding `Cc1csc2nc(COC(=O)CNC(=O)c3ccccc3)cc(=O)n12`, the “activation” value was inactive: 1.04%.

For `COc1ccc(N2CCN(Cc3nc4c(c(=O)[nH]c(=O)n4C)n3Cc3ccccc3C)CC2)cc1`, the “activation” value is inactive: 9.75%.

As to `Cc1ccc(O)c(NC(=O)C2=CC(c3ccco3)=NS(=O)(=O)N2C)c1`, the “activation” value was inactive: -9.11%.

`COC(=O)c1ccc(NC(=O)C(=O)NCCc2csc(-c3ccc(F)cc3)n2)cc1`: the “activation” value was inactive: -10.9%.

For the compound `O=C(CSc1ncccc1C(=O)Oc1ccccc1Cl)Nc1ccc(C(F)(F)F)cc1Cl`, the “activation” value is inactive: -14.5%.

For `CCN(CC)S(=O)(=O)c1ccc2c(c1)N(CC(=O)Nc1cccc(C#N)c1)C(=O)CO2`, the “activation” value was inactive: -13.5%.

In the case of `FC(F)(F)c1cc(-c2ccccc2)nc2cc(-c3ccccc3)nn12`, the “activation” value was inactive: -4.62%.

Take `CCc1nnc(NC(=O)CSc2nc3c([nH]c4ccccc43)c(=O)n2-c2ccc(Cl)cc2)s1`: the “activation” value was inactive: -21.4%.

Consider `O=c1oc2ccccc2cc1-c1cn2cc(Cc3cc(Cl)ccc3Cl)sc2n1`, for which the “activation” value is inactive: -2.82%.

Consider `Cc1ccc(CN(C(=O)COc2ccccc2[N+](=O)[O-])c2ccccn2)o1`, for which the “activation” value was inactive: -18.1%.

For `COc1ccc(NC(=O)C2CCCN(S(=O)(=O)c3ccc(F)cc3)C2)cc1` (stereo unspecified), the “activation” value is inactive: -12.5%.

`CCCCSc1nc2sc3c(c2c(=O)n1-c1ccccc1C)CC(C)(C)OC3`: the “activation” value is inactive: -7.21%.

With `Cc1cc(F)ccc1NC(=O)Cn1cc(S(=O)(=O)NC(C)C)c(S(=O)(=O)NC(C)C)c1`, the “activation” value is inactive: -16%.

Consider `Cc1ccc2onc(CC(=O)N3CCN(c4cccc(Cl)c4)CC3)c2c1`, for which the “activation” value is inactive: -5.43%.

Turning to `COc1ccc(NC(=O)Cn2c(=O)oc3cc(S(=O)(=O)N4CCCCCC4)ccc32)cc1OC`, the “activation” value is inactive: -9.01%.
